According to PubChem BioAssay AID1671188 (National Center for Advancing Translational Sciences (NCATS), 2021):
“And” between values parts separate entries of the source, which are not always exact repeats. Equal entries are not always repeated. The campaign covered roughly 100,000 compounds. About 250 (0.25%) were called active. Inconclusive results, whose numbers are uncertain, are shown with a selection of clear calls. The call rests on the fitted dose curve; in most records, active means well fitted inhibition curve with a large enough effect; inconclusive means small, poorly fitted or top-dose-only effect; inactive means flat fitted curve, though single readings scatter. A potency beside an inconclusive call is a rough fit, not a confirmed value. Numbered stars: 1 amine (or outer) side, 2 acyl side, 3 side chain; on linkers, the order of the positions; unused ones are H or OH. Square brackets hold non-standard residues; d marks the D form. Peptide text beside a SMILES is read from it. X1 = O=C(C(CC(O)CO)O[*:1])[*:2]; NMeV = CN[CH](C(=O)O)C(C)C; NMeA = CN[CH](C)C(=O)O; βAla = NCCC(=O)O
Further: nearly all actives have a fitted effect of over 60% in size.
Potency means the concentration at half of the fitted maximal effect; tags describe the fitted curve by direction and shape.

The compounds below were run against Alanine aminotransferase 2 (Homo sapiens) (UniProt Q8TD30) (assay: Primary qHTS assay for inhibitors of Glutamate pyruvate transaminase 2 (GPT2)). Conditions: Recombinant GPT2, coupled pyruvate oxidase/HRP Amplex Red fluorescence; series mostly up to 57.7 µM.
Chain of UniProt Q8TD30 (Q8TD30 whole entry, looked up): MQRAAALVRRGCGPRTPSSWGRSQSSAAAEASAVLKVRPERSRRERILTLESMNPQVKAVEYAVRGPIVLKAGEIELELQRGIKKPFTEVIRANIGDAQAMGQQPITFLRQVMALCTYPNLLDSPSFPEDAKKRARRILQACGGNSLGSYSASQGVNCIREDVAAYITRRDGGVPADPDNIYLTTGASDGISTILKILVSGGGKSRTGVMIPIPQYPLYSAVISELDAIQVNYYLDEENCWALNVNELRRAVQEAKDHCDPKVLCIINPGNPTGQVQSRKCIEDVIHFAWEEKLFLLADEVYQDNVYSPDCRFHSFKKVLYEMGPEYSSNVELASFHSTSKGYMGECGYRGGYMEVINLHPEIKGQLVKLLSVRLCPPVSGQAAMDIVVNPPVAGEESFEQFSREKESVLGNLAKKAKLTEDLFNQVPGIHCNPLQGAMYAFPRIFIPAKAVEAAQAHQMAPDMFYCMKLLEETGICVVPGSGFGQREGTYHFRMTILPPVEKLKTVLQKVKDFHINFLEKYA
Method in brief: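 GPT2 10ng/uL, a-KG 250uM, L-Ala 2mM, HEPES pH7.5 + 0.0001% Tween; 30 min RT. Then Amplex mix (PO/HRP/ThPP), 30 min RT dark, fluorescence. AOA 50uM used as positive control.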
With CC(C)c1nc2c(c(-c3ccc(O)cc3)n1)CCN(C(=O)c1ccccc1)CC2 the Potency was inconclusive: 0.708 µM [inhibitor, full curve, poor fit].
For COCc1noc([C@@H]2CN(Cc3cc(C)nn3C)C[C@H]2C(N)=O)n1, the Potency was inconclusive: 28.2 µM [inhibitor, partial curve, poor fit].
In the case of CS(=O)(=O)c1ccc(CC(=O)N[C@H]2CCOC[C@H]2C2CCOCC2)cc1, the Potency is reported as “inactive”.
In the case of COc1ccccc1Oc1ncccc1CNC(=O)C1CCOCC1, the Potency is reported as inconclusive: 39.8 µM [inhibitor, single point].
O=C(c1ccccc1)N1CCC2(CC1)C(=NC1CCCCC1)NC(=O)N2c1cc(F)cc(F)c1 was tested, and the Potency was inconclusive: 7.08 µM [inhibitor, single point].
With Cc1ccc(CNC(=O)c2ccc3c(c2)CN(Cc2ccncc2)CCO3)cc1 the Potency was inconclusive: 6.31 µM [inhibitor, single point].
With NCCCNCCCCNCCCN the Potency was inconclusive: 6.31 µM [inhibitor, single point].
With C/C1=C\CC[C@]2(C)O[C@@H]2[C@H](O)[C@H](C(C)C)[C@H](OC(=O)/C=C/c2ccccc2)C1 the Potency was inconclusive: 5.01 µM [inhibitor, single point].
In the case of CC1(C)C[C@H](NCC2CCCCC2)[C@@]2(CCC(=O)N3CCCC3)CC[C@](C)(O)C[C@@H]12, the Potency is reported as inconclusive: 50.1 µM [inhibitor, partial curve, poor fit].
For COc1ccc(CCC(=O)NC2CCN(c3cc(C(F)(F)F)nc(C)n3)CC2)cc1, the Potency was “inactive”.
For COc1ccc(Nc2ccnc(N3CCC(NC(=O)N(C)C)CC3)n2)cc1, the Potency was inconclusive: 39.8 µM [inhibitor, single point].
With Cc1ccccc1C(=O)NC1CCN(c2cc(-c3cccs3)[nH]n2)C1 (stereo not given) the Potency was inconclusive: 15.8 µM [inhibitor, partial curve, poor fit].
CCC(C)C1NC(=O)C2CCCN2C(=O)C(CC(O)CO)OC(=O)CCNC(=O)C(C)N(C)C(=O)C(C(C)C)N(C)C1=O (stereo not given) (cyclo([X1]PI[NMeV][NMeA][βAla]); configuration not given here) was tested, and the Potency was inconclusive: 2.24 µM [inhibitor, single point].
COC(=O)COc1cccn2c(=O)c(-c3cc(C)n(-c4ccc(Cl)c(Cl)c4)n3)c(C)nc12 was tested, and the Potency was “inactive”.
CCNC(=O)N1CCCCCC1c1nc(C2CC2)no1 (stereo not given) was tested, and the Potency was inconclusive: 4.47 µM [inhibitor, single point].
For COc1ccc(-c2cc(N3CCCC(NC(=O)C4CCN(C(C)=O)CC4)C3)n[nH]2)cc1 (stereo not given), the Potency was inconclusive: 10 µM [inhibitor, partial curve].
With COc1ccc(-c2nn(-c3ccccc3)cc2CN2CCC(F)CC2)c(F)c1 the Potency was inconclusive: 3.16 µM [inhibitor, single point].
With N#C/C(=C\c1c[nH]c2ccccc12)C(=O)c1ccc(O)c(O)c1 the Potency was inconclusive: 39.8 µM [inhibitor, single point].
For Cn1nc(C2CCCN(C(=O)NCc3ccccc3)C2)n(C2CCCC2)c1=O (stereo not given), the Potency was inconclusive: 3.55 µM [inhibitor, full curve, poor fit].
With CC(C)C[C@@H]1N[C@H](C(=O)NC(C)C)Cc2cn(Cc3ccccn3)c3cccc1c23 the Potency was inconclusive: 11.2 µM [inhibitor, single point].
With COc1ccc(-c2ccc3ncc(Nc4cccc(N[S+](C)(=O)[O-])c4)n3n2)cc1OC the Potency was inconclusive: 10 µM [inhibitor, partial curve, poor fit].
In the case of COc1ccc(F)c(-c2nc(CN3CCN4C(=O)CNC(=O)C4C3)c(C)o2)c1 (stereo not given), the Potency is reported as inconclusive: 6.31 µM [inhibitor, single point].
With CC(=O)Nc1ccc(CN2C3CCC2CN(C(C)C)C3)cc1 the Potency was inconclusive: 11.2 µM [inhibitor, single point].
With CC1CCC(NC(=O)c2cc3n(n2)CC(c2ccc(Cl)cc2)OC3)CC1 (stereo not given) the Potency was “inactive”.
In the case of N#Cc1cccc(CN[C@@H]2CO[C@H](CNC(=O)C3CC3)[C@H]2O)c1, the Potency is reported as inconclusive: 0.794 µM [inhibitor, full curve, poor fit].
CC1=NN(c2ccccc2)C(=O)C1 was tested, and the Potency was inconclusive: 1.53 µM [inhibitor, full curve] and inconclusive: 708 nM [inhibitor, full curve, poor fit].
For CN(Cc1ccc2nccnc2c1)C(=O)c1ccc(CCC(C)(C)O)cc1, the Potency was inconclusive: 8.91 µM [inhibitor, single point].
In the case of N[C@H]1CN(C(=O)c2coc(CN3CCOCC3)c2)C[C@@H]1c1ccccc1, the Potency is reported as inconclusive: 3.55 µM [inhibitor, partial curve, poor fit].
With COc1ccc(C(=O)N2CCC[C@H](n3c(=O)n(C)c4cccnc43)C2)cn1 the Potency was inconclusive: 31.6 µM [inhibitor, single point].
In the case of CC(C)Oc1ccccc1CN1CCC2(CC1)CN(c1ncccn1)CC2CO (stereo not given), the Potency is reported as inconclusive: 39.8 µM [inhibitor, single point].
In the case of CC1=C[C@@H](CN2CCN(c3ccccc3)CC2)[C@H](C(C)C)C[C@H]1Cc1nnc(-c2cncn2C)o1, the Potency is reported as “inactive”.
In the case of CC1=C[C@@H](CN2CCC(CO)CC2)[C@H](C(C)C)C[C@H]1Cc1nnc(-c2ccccc2)o1, the Potency is reported as inconclusive: 11.2 µM [inhibitor, single point].
For O=C(NCc1ccc(Cl)cc1)c1cc(-c2ccc(Cl)cc2Cl)c2nncn2n1, the Potency was “inactive”.
O=C(NCc1cc(F)ccc1F)C1CCN(C(=O)c2ncn3c2COC(c2ccccc2)C3)CC1 (stereo not given) was tested, and the Potency was inconclusive: 39.8 µM [inhibitor, single point].
In the case of CC1=C[C@@H](CNC(=O)CCC(=O)O)[C@H](C(C)C)C[C@H]1Cc1nc2ccc(F)cc2[nH]1, the Potency is reported as “inactive”.
NCCCC(=O)O was tested, and the Potency was inconclusive: 3.55 µM [inhibitor, partial curve, poor fit].
In the case of CC(C)c1ccc(CN2CCc3c(n(Cc4ccccc4)n(-c4ccccc4)c3=O)C2)cc1, the Potency is reported as inconclusive: 4.47 µM [inhibitor, single point].
COCCC1(CO)CCCN(c2ncc(F)c(N3CCCC3)n2)C1 (stereo not given) was tested, and the Potency was inconclusive: 3.55 µM [inhibitor, full curve, poor fit].
In the case of NCCc1cnc[nH]1, the Potency is reported as inconclusive: 4.47 µM [inhibitor, single point].
For COc1ccc(O)cc1, the Potency was inconclusive: 39.8 µM [inhibitor, partial curve, poor fit].
In the case of COc1ccccc1C(=O)NC1CC(=O)N(Cc2cccc(F)c2)C1 (stereo not given), the Potency is reported as inconclusive: 25.1 µM [inhibitor, partial curve, poor fit].
For CN(C)c1ccc2ncc(Nc3ccc(Cl)cn3)n2n1, the Potency was inconclusive: 50.1 µM [inhibitor, partial curve, poor fit].
With Cc1ccccc1S(=O)(=O)N1CCC(CCC(=O)N2CCc3ccccc3C2)CC1 the Potency was inconclusive: 39.8 µM [inhibitor, partial curve, poor fit].
O=C1c2cnc(-c3cccc(CO)c3)nc2OCCN1Cc1ccccc1 was tested, and the Potency was “inactive”.
With COC[C@H]1CCCN1C(=O)C[C@@H]1O[C@H](CNC(=O)c2ccco2)[C@@H](O)[C@H]1O the Potency was “inactive”.
With O=C(c1ccccc1Cl)N1CCC(C(=O)N2CCC(N3CCCC3=O)CC2)CC1 the Potency was inconclusive: 39.8 µM [inhibitor, single point].
With Cc1cc(C)c(CNC(=O)c2cc(-c3ccc(CN4CCOCC4)cc3)cc3c2cnn3C2CCCC2)c(=O)[nH]1 the Potency was inconclusive: 15.3 µM [inhibitor, single point].
CO[C@H]1CN(C2CCN(C(=O)C3CCN(C(C)=O)CC3)CC2)[C@H]1c1ccncc1 was tested, and the Potency was inconclusive: 39.8 µM [inhibitor, single point].
For COC(=O)CC1OC(C)C2=C(O)c3c(O)cccc3C(=O)C23OC13 (stereo not given), the Potency was inconclusive: 3.16 µM [inhibitor, full curve, poor fit].
In the case of Cc1cccc(CN2CCCC(O)(CNCC(C)(C)C)C2=O)c1 (stereo not given), the Potency is reported as “inactive”.
With Cc1nn(C)cc1CN(C)CC1(O)CCCN(Cc2cccc(F)c2F)C1=O (stereo not given) the Potency was inconclusive: 7.08 µM [inhibitor, single point].
For CN(C)CCN1CCC(N2CCN(C(=O)c3ccnn3C)CC2)C1=O (stereo not given), the Potency was inconclusive: 39.8 µM [inhibitor, single point].
CCOc1ccc(C(=O)N2CCC(Cc3nc(-c4cnccn4)no3)CC2)cc1 was tested, and the Potency was “inactive”.
For CC(C)(C(=O)NCCc1ccccn1)C1CCOCC1, the Potency was “inactive”.
Cc1nn(-c2ccc(F)cc2)c(C)c1[C@@H]1C=C[C@@H](NS(=O)(=O)c2cccs2)C1 was tested, and the Potency was inconclusive: 0.891 µM [inhibitor, full curve, poor fit].
O=C([C@@H]1C[C@H](F)CN1C(=O)c1ccsc1)N1CCOCC1 was tested, and the Potency was “inactive”.
In the case of COc1ccccc1-c1cccc(-c2c(O)c3cc(C#N)c(Cl)cc3[nH]c2=O)c1, the Potency is reported as inconclusive: 88.5 µM [inhibitor, single point].
In the case of CCc1ccc(NC(=O)C2CCN(C(=O)c3nnn4c3COC(c3ccc(OC)cc3)C4)CC2)cc1 (stereo not given), the Potency is reported as inconclusive: 6.31 µM [inhibitor, single point].
Nc1nc(C2CC(O)C2)cc(N2CCc3sccc3C2)n1 (stereo not given) was tested, and the Potency was inconclusive: 31.6 µM [inhibitor, single point].
For CCn1cnnc1-c1nn(C)c2c1CN(C(=O)c1[nH]nc3c1CCc1cc(OC)ccc1-3)CC2, the Potency was inconclusive: 12.6 µM [inhibitor, partial curve, poor fit].
